Results reported in the supplement of paper PMC8728848.
The list shows a part of the results.

Tests used:
Assay in all cases: glycan array binding signal (z-score within array); higher = stronger binding
Settings in all cases: glycan notation: IUPAC condensed, linker removed
[1] = molecular target: Gal(a1-3)Gal(b1-4)GlcNAc(b1-6)GalNAc
How it was run: (§1)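 The Consortium for Functional Glycomics database supplied 3228 glycan arrays, of which those lacking an available protein sequence were dropped. The binding signal, a within-array Z-score, was averaged across arrays of the same protein sequence and across linkers. Negative scores can be read as non-binding.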

[2] = molecular target: Gal(a1-3)Gal(b1-4)[Fuc(a1-3)]GalNAc
How it was run: as §1

[3] = molecular target: Gal(a1-3)Gal(b1-4)[Fuc(a1-3)]GlcNAc
How it was run: as §1

[4] = molecular target: Gal(a1-3)Gal(b1-4)[Fuc(a1-3)]GlcNAc(b1-2)Man(a1-3)[Gal(a1-3)Gal(b1-4)[Fuc(a1-3)]GlcNAc(b1-2)Man(a1-6)]Man(b1-4)GlcNAc(b1-4)GlcNAc
How it was run: as §1

Gal(a1-3)GalNAc = molecular target: Gal(a1-3)GalNAc
How it was run: as §1

Gal(a1-3)GlcNAc = molecular target: Gal(a1-3)GlcNAc
How it was run: as §1

[5] = molecular target: Gal(a1-3)[Gal(a1-4)]Gal(b1-4)GlcNAc
How it was run: as §1

[6] = molecular target: Gal(a1-4)Gal(b1-3)GlcNAc(b1-2)Man(a1-3)[Gal(a1-4)Gal(b1-3)GlcNAc(b1-2)Man(a1-6)]Man(b1-4)GlcNAc(b1-4)GlcNAc
How it was run: as §1

Gal(a1-4)Gal(b1-4)Gal = molecular target: Gal(a1-4)Gal(b1-4)Gal
How it was run: as §1

Gal(a1-4)Gal(b1-4)GalNAc = molecular target: Gal(a1-4)Gal(b1-4)GalNAc
How it was run: as §1

Gal(a1-4)Gal(b1-4)Glc = molecular target: Gal(a1-4)Gal(b1-4)Glc
How it was run: as §1

Gal(a1-4)Gal(b1-4)GlcNAc = molecular target: Gal(a1-4)Gal(b1-4)GlcNAc
How it was run: as §1

[7] = molecular target: Gal(a1-4)Gal(b1-4)GlcNAc(b1-2)Man(a1-3)[Gal(a1-4)Gal(b1-4)GlcNAc(b1-2)Man(a1-6)]Man(b1-4)GlcNAc(b1-4)GlcNAc
How it was run: as §1

[8] = molecular target: Gal(a1-4)Gal(b1-4)GlcNAc(b1-3)Gal(b1-4)Glc
How it was run: as §1

Gal(a1-4)GlcNAc = molecular target: Gal(a1-4)GlcNAc
How it was run: as §1

Gal(a1-6)Glc = molecular target: Gal(a1-6)Glc
How it was run: as §1

Gal(b1-2)Gal = molecular target: Gal(b1-2)Gal
How it was run: as §1

Gal(b1-3)Gal = molecular target: Gal(b1-3)Gal
How it was run: as §1

Gal(b1-3)Gal(b1-4)GlcNAc = molecular target: Gal(b1-3)Gal(b1-4)GlcNAc
How it was run: as §1

Gal(b1-3)GalNAc = molecular target: Gal(b1-3)GalNAc
How it was run: as §1

[9] = molecular target: Gal(b1-3)GalNAc(a1-3)[Fuc(a1-2)]Gal(b1-4)Glc
How it was run: as §1

[10] = molecular target: Gal(b1-3)GalNAc(a1-3)[Fuc(a1-2)]Gal(b1-4)GlcNAc
How it was run: as §1

Gal(b1-3)GalNAc(b1-3)Gal = molecular target: Gal(b1-3)GalNAc(b1-3)Gal
How it was run: as §1

[11] = molecular target: Gal(b1-3)GalNAc(b1-3)Gal(a1-4)Gal(b1-4)Glc
How it was run: as §1

[12] = molecular target: Gal(b1-3)GalNAc(b1-3)Gal(b1-4)Glc
How it was run: as §1

[13] = molecular target: Gal(b1-3)GalNAc(b1-3)Gal(b1-4)GlcNAc
How it was run: as §1

[14] = molecular target: Gal(b1-3)GalNAc(b1-4)Gal(b1-4)Glc
How it was run: as §1

[15] = molecular target: Gal(b1-3)GalNAc(b1-4)[Neu5Ac(a2-3)]Gal(b1-4)Glc
How it was run: as §1

Gal(b1-3)GlcNAc = molecular target: Gal(b1-3)GlcNAc
How it was run: as §1

[16] = molecular target: Gal(b1-3)GlcNAc(a1-3)Gal(b1-4)GlcNAc
How it was run: as §1

[17] = molecular target: Gal(b1-3)GlcNAc(a1-6)Gal(b1-4)GlcNAc
How it was run: as §1

Gal(b1-3)GlcNAc(b1-2)Man = molecular target: Gal(b1-3)GlcNAc(b1-2)Man
How it was run: as §1

[18] = molecular target: Gal(b1-3)GlcNAc(b1-2)Man(a1-3)[Gal(b1-3)GlcNAc(b1-2)Man(a1-6)]Man(b1-4)GlcNAc(b1-4)GlcNAc
How it was run: as §1

[19] = molecular target: Gal(b1-3)GlcNAc(b1-2)Man(a1-3)[Gal(b1-3)GlcNAc(b1-2)Man(a1-6)]Man(b1-4)GlcNAc(b1-4)[Fuc(a1-6)]GlcNAc
How it was run: as §1

[20] = molecular target: Gal(b1-3)GlcNAc(b1-2)Man(a1-3)[GlcNAc(b1-4)][Gal(b1-3)GlcNAc(b1-2)Man(a1-6)]Man(b1-4)GlcNAc(b1-4)GlcNAc
How it was run: as §1

[21] = molecular target: Gal(b1-3)GlcNAc(b1-2)[Gal(b1-3)GlcNAc(b1-6)]Man(a1-6)[Gal(b1-3)GlcNAc(b1-2)Man(a1-3)]Man(b1-4)GlcNAc(b1-4)GlcNAc
How it was run: as §1

[22] = molecular target: Gal(b1-3)GlcNAc(b1-3)Gal(b1-3)GlcNAc
How it was run: as §1

B1: Epa7 (Candida glabrata), Q6DTM6_CANGB (protein)
chain: MGSSHHHHHHSSGLVPRGSHMKDDYSSFLSNNNLGWTDPTEFPLGCSPNVTTPKNGLSMELYSYDLRKNGSYPCWDAAYLDPNYPRTGYKSHRLLAKVDGVTGNINFYYHATKGCTPEIDHLPASYNYPKPLTMTNFTMLLYGYFKPKVTGYHTFTISADDLLFVNFGAGNAFDCCKRESSADDFGNYQAYAVWGSQTAKDDLTVHLDAGLYYPIRIFFNNREYDAELSLTLKTESDSNPVIDFSDYFYSFDDTKDGCPGLVSYDTS
glycan array binding signal (z-score) [1]: -0.215 | glycan array binding signal (z-score) [2]: -0.284 | glycan array binding signal (z-score) [3]: -0.201 | glycan array binding signal (z-score) [4]: -0.157 | glycan array binding signal (z-score) (Gal(a1-3)GalNAc): -0.077 | glycan array binding signal (z-score) (Gal(a1-3)GlcNAc): -0.278 | glycan array binding signal (z-score) [5]: -0.238 | glycan array binding signal (z-score) [6]: -0.188 | glycan array binding signal (z-score) (Gal(a1-4)Gal(b1-4)Gal): -0.273 | glycan array binding signal (z-score) (Gal(a1-4)Gal(b1-4)GalNAc): -0.255 | glycan array binding signal (z-score) (Gal(a1-4)Gal(b1-4)Glc): -0.168 | glycan array binding signal (z-score) (Gal(a1-4)Gal(b1-4)GlcNAc): -0.071 | glycan array binding signal (z-score) [7]: -0.176 | glycan array binding signal (z-score) [8]: -0.209 | glycan array binding signal (z-score) (Gal(a1-4)GlcNAc): -0.165 | glycan array binding signal (z-score) (Gal(a1-6)Glc): -0.15 | glycan array binding signal (z-score) (Gal(b1-2)Gal): -0.206 | glycan array binding signal (z-score) (Gal(b1-3)Gal): 2.85 | glycan array binding signal (z-score) (Gal(b1-3)Gal(b1-4)GlcNAc): 5.79 | glycan array binding signal (z-score) (Gal(b1-3)GalNAc): 2.11 | glycan array binding signal (z-score) [9]: 5.79 | glycan array binding signal (z-score) [10]: 5.59 | glycan array binding signal (z-score) (Gal(b1-3)GalNAc(b1-3)Gal): 11 | glycan array binding signal (z-score) [11]: 4.75 | glycan array binding signal (z-score) [12]: -0.277 | glycan array binding signal (z-score) [13]: -0.27 | glycan array binding signal (z-score) [14]: 7.99 | glycan array binding signal (z-score) [15]: 4.82 | glycan array binding signal (z-score) (Gal(b1-3)GlcNAc): -0.104 | glycan array binding signal (z-score) [16]: -0.19 | glycan array binding signal (z-score) [17]: -0.187 | glycan array binding signal (z-score) (Gal(b1-3)GlcNAc(b1-2)Man): -0.088 | glycan array binding signal (z-score) [18]: -0.143 | glycan array binding signal (z-score) [19]: -0.195 | glycan array binding signal (z-score) [20]: -0.119 | glycan array binding signal (z-score) [21]: -0.167 | glycan array binding signal (z-score) [22]: -0.207
